{"source": "the BET-seq Pho4 binding data (Le et al. 2018)", "note": "The list shows a part of the results. Values were computed here from the reads of four pooled replicates and scatter widely."}
{"target": "T1, Pho4 (S. cerevisiae) (UniProt P07270)", "T1 sequence": "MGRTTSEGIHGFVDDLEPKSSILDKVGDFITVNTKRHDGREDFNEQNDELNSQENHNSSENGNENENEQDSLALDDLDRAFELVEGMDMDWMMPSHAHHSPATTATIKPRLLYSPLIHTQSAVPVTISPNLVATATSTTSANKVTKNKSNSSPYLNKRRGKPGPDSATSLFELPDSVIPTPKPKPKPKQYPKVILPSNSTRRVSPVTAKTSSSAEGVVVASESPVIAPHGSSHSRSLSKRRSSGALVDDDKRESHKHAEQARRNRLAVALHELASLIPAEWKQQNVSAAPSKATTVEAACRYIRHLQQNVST", "experiment": "relative binding free energy (BET-seq); higher = weaker binding", "details": "reference: library average", "units": {"relative binding free energy": "kcal/mol"}}
{"sequence": "GATTTCACGTGAGGCT", "relative binding free energy": 0.3}
{"sequence": "GTAGGCACGTGTAGAT", "relative binding free energy": 0.1}
{"sequence": "TAATGCACGTGTGGTG", "relative binding free energy": 0}
{"sequence": "GGGAACACGTGTATTG", "relative binding free energy": 0.02}
{"sequence": "GTTTACACGTGTAGAA", "relative binding free energy": 0.16}
{"sequence": "TACTTCACGTGTGTGA", "relative binding free energy": 0.18}
{"sequence": "TGAGGCACGTGGTTGG", "relative binding free energy": -0.06}
{"sequence": "AGGAGCACGTGAGTAG", "relative binding free energy": 0.21}
{"sequence": "ATCTTCACGTGAAGGG", "relative binding free energy": 0.35}
{"sequence": "TTGTGCACGTGTATCA", "relative binding free energy": -0.04}
{"sequence": "TTGCTCACGTGATGGG", "relative binding free energy": 0.25}
{"sequence": "TCGTACACGTGTCGTG", "relative binding free energy": 0.11}
{"sequence": "AGTTACACGTGAGTCG", "relative binding free energy": 0.37}
{"sequence": "TGGGTCACGTGGGGAG", "relative binding free energy": -0.04}
{"sequence": "ATGGACACGTGGGGCA", "relative binding free energy": -0.07}
{"sequence": "GATGGCACGTGTGTAT", "relative binding free energy": -0.02}
{"sequence": "TTGGTCACGTGATACG", "relative binding free energy": 0.29}
{"sequence": "GTTTGCACGTGGGCTA", "relative binding free energy": -0.11}
{"sequence": "TGGAACACGTGAATAG", "relative binding free energy": 0.37}
{"sequence": "GGGGGCACGTGCAGCG", "relative binding free energy": -0.11}
{"sequence": "TTAGACACGTGGTTAT", "relative binding free energy": 0.06}
{"sequence": "GTTAGCACGTGTAGGA", "relative binding free energy": 0.04}
{"sequence": "CGGTGCACGTGTAGTG", "relative binding free energy": -0.01}
{"sequence": "CAATTCACGTGCGGGG", "relative binding free energy": 0.24}
{"sequence": "CTGATCACGTGAGTTT", "relative binding free energy": 0.35}
{"sequence": "GGACGCACGTGGGGCT", "relative binding free energy": -0.29}
{"sequence": "AATTACACGTGGTCTT", "relative binding free energy": 0.05}
{"sequence": "CGGGTCACGTGTAGGG", "relative binding free energy": 0.23}
{"sequence": "TGGTTCACGTGCTGTG", "relative binding free energy": 0.23}
{"sequence": "CAAGGCACGTGTTTGG", "relative binding free energy": -0.05}
{"sequence": "GTGTTCACGTGTAGTG", "relative binding free energy": 0.34}
{"sequence": "TGGGTCACGTGCCTGT", "relative binding free energy": -0.1}
{"sequence": "TTGCTCACGTGTTTCG", "relative binding free energy": 0.19}
{"sequence": "TGGGTCACGTGCAGAG", "relative binding free energy": 0.05}
{"sequence": "ACAGGCACGTGAGGGG", "relative binding free energy": -0.06}
{"sequence": "TTATTCACGTGGTTGC", "relative binding free energy": 0.24}
{"sequence": "AGTTCCACGTGAATGG", "relative binding free energy": 0.23}
{"sequence": "AATTACACGTGTTGTG", "relative binding free energy": 0.06}
{"sequence": "GGGCGCACGTGGTACT", "relative binding free energy": 0}
{"sequence": "ATTGGCACGTGACTGA", "relative binding free energy": -0.03}
{"sequence": "TCGGGCACGTGTAGGA", "relative binding free energy": -0.18}
{"sequence": "TAGTGCACGTGATGAT", "relative binding free energy": 0.12}
{"sequence": "GTATTCACGTGTGTAA", "relative binding free energy": 0.24}
{"sequence": "TAAGCCACGTGTGTTG", "relative binding free energy": -0.1}
{"sequence": "AATAGCACGTGTTTTA", "relative binding free energy": -0.08}
{"sequence": "GCTATCACGTGCGGTG", "relative binding free energy": 0.14}
{"sequence": "GTTTTCACGTGTATCG", "relative binding free energy": 0.16}
{"sequence": "GAGTTCACGTGAGGCA", "relative binding free energy": 0.48}
{"sequence": "TTGGCCACGTGCCGGT", "relative binding free energy": -0.11}
{"sequence": "CGAAGCACGTGGATGG", "relative binding free energy": 0.06}
{"sequence": "GCGTCCACGTGAGGTG", "relative binding free energy": 0.24}
{"sequence": "GGGTTCACGTGCGCTG", "relative binding free energy": 0.18}
{"sequence": "TAGTACACGTGTGTGA", "relative binding free energy": 0.09}
{"sequence": "CTGCTCACGTGGGAGT", "relative binding free energy": 0.15}
{"sequence": "GTTTACACGTGCTCGT", "relative binding free energy": 0.07}
{"sequence": "TATACCACGTGTTGGT", "relative binding free energy": -0.04}
{"sequence": "ATTCGCACGTGGGGTC", "relative binding free energy": -0.19}
{"sequence": "CTTTGCACGTGTTTAT", "relative binding free energy": -0.05}
{"sequence": "AGTCGCACGTGCGGGG", "relative binding free energy": -0.23}
{"sequence": "GGCTGCACGTGTGCGT", "relative binding free energy": 0.04}
{"sequence": "GCTCGCACGTGTTGGG", "relative binding free energy": -0.09}
{"sequence": "TATGACACGTGGATAT", "relative binding free energy": -0.07}
{"sequence": "GGGAGCACGTGAAGGC", "relative binding free energy": 0.3}
{"sequence": "GGGAGCACGTGTGTAG", "relative binding free energy": -0.22}
{"sequence": "GGGAGCACGTGTGGAC", "relative binding free energy": 0.01}
{"sequence": "TGGCGCACGTGTGTTC", "relative binding free energy": 0.05}
{"sequence": "AGGTACACGTGGAATT", "relative binding free energy": 0.08}
{"sequence": "GGTCGCACGTGTATGG", "relative binding free energy": 0.14}
{"sequence": "TTGTGCACGTGACTAG", "relative binding free energy": 0.1}
{"sequence": "CTGGGCACGTGGTTCT", "relative binding free energy": -0.19}
{"sequence": "TGTGCCACGTGTGTTC", "relative binding free energy": -0.03}
{"sequence": "AAATTCACGTGTTGAT", "relative binding free energy": 0.24}
{"sequence": "ATGGTCACGTGTGAGT", "relative binding free energy": 0.16}
{"sequence": "TCTTGCACGTGTGTGA", "relative binding free energy": 0.1}
{"sequence": "GGGTGCACGTGGGCCT", "relative binding free energy": -0.14}
{"sequence": "ATGGGCACGTGTCAGT", "relative binding free energy": -0.08}
{"sequence": "ATAGACACGTGGTTAT", "relative binding free energy": -0.08}
{"sequence": "AAGGACACGTGGTGGG", "relative binding free energy": -0.06}
{"sequence": "AGAGGCACGTGATTTT", "relative binding free energy": 0.02}
{"sequence": "GTCTACACGTGGTAGT", "relative binding free energy": 0.09}
{"sequence": "GTGGGCACGTGAAGTA", "relative binding free energy": 0.19}
{"sequence": "AAAGGCACGTGGGGCC", "relative binding free energy": -0.23}
{"sequence": "TTAAACACGTGATGGT", "relative binding free energy": 0.16}
{"sequence": "ATGTTCACGTGCCAGG", "relative binding free energy": 0.26}
{"sequence": "AGTTACACGTGTAGTG", "relative binding free energy": 0.12}
{"sequence": "GTGTGCACGTGTAAGC", "relative binding free energy": 0.15}
{"sequence": "ATAAGCACGTGCGGTA", "relative binding free energy": -0.07}
{"sequence": "AGGTTCACGTGTGGTC", "relative binding free energy": 0.34}
{"sequence": "TTTTACACGTGGGCTA", "relative binding free energy": 0.01}
{"sequence": "TTTTTCACGTGGACGC", "relative binding free energy": 0.39}
{"sequence": "CATTACACGTGTGTAG", "relative binding free energy": 0.08}
{"sequence": "TTTTTCACGTGATTGA", "relative binding free energy": 0.31}
{"sequence": "CAAGTCACGTGGGGTT", "relative binding free energy": -0.11}
{"sequence": "GCGGTCACGTGGAGTG", "relative binding free energy": 0.09}
{"sequence": "GGGTTCACGTGCGGTT", "relative binding free energy": 0.33}
{"sequence": "GTGTGCACGTGAGTTA", "relative binding free energy": 0.2}
{"sequence": "TTGGGCACGTGCGAGG", "relative binding free energy": -0.17}
{"sequence": "TGGTGCACGTGAGGCA", "relative binding free energy": 0.02}
{"sequence": "GTAGCCACGTGTTAGT", "relative binding free energy": -0.07}
{"sequence": "GATTTCACGTGTGTTC", "relative binding free energy": 0.45}
{"sequence": "TTAAGCACGTGTGAAT", "relative binding free energy": 0.01}
{"sequence": "GTGGCCACGTGTAGTG", "relative binding free energy": 0.04}
{"sequence": "CGTGACACGTGAAGGG", "relative binding free energy": 0.18}
{"sequence": "TTATGCACGTGTACGG", "relative binding free energy": -0.09}
{"sequence": "GGTTACACGTGTACGG", "relative binding free energy": 0.22}
{"sequence": "GTGAGCACGTGGGCAG", "relative binding free energy": -0.17}
{"sequence": "ATTATCACGTGGGCGT", "relative binding free energy": 0.02}
{"sequence": "TTGGACACGTGGGTTG", "relative binding free energy": -0.02}
{"sequence": "GATTTCACGTGTGCGC", "relative binding free energy": 0.37}
{"sequence": "TAAAGCACGTGATTAT", "relative binding free energy": 0.15}
{"sequence": "CCGGGCACGTGTTTGT", "relative binding free energy": -0.09}
{"sequence": "GGGATCACGTGGTCTT", "relative binding free energy": 0.21}
{"sequence": "ATGATCACGTGTGGCA", "relative binding free energy": 0.16}
{"sequence": "AAATTCACGTGATGTA", "relative binding free energy": 0.3}
{"sequence": "TGTCGCACGTGTAATT", "relative binding free energy": -0.03}
{"sequence": "TTGGTCACGTGTCAAT", "relative binding free energy": 0.23}
{"sequence": "GCGCTCACGTGCGGGG", "relative binding free energy": 0.13}
{"sequence": "GGTAGCACGTGGATTA", "relative binding free energy": -0.01}
{"sequence": "GTGATCACGTGTTTTT", "relative binding free energy": 0.21}
{"sequence": "GGATGCACGTGGGCTT", "relative binding free energy": -0.16}
{"sequence": "AAGCGCACGTGTTGGA", "relative binding free energy": -0.06}
{"sequence": "TTGGACACGTGCGCGG", "relative binding free energy": -0.18}
{"sequence": "AAGGGCACGTGGTTGA", "relative binding free energy": -0.13}
{"sequence": "GGTGGCACGTGTGACG", "relative binding free energy": 0.07}
{"sequence": "GAGCTCACGTGGGAGT", "relative binding free energy": 0.33}
{"sequence": "TGTGGCACGTGGCGTA", "relative binding free energy": -0.18}
{"sequence": "TGTGGCACGTGACGTA", "relative binding free energy": -0.01}
{"sequence": "GGAGACACGTGTGGAG", "relative binding free energy": 0.09}
{"sequence": "TGTGTCACGTGCTGCT", "relative binding free energy": 0.08}
{"sequence": "GTGATCACGTGATAGT", "relative binding free energy": 0.38}
{"sequence": "TGTTACACGTGGAATA", "relative binding free energy": 0.1}
{"sequence": "TGTATCACGTGCTTCG", "relative binding free energy": 0.09}
{"sequence": "TTATTCACGTGGTCTT", "relative binding free energy": 0.16}
{"sequence": "ATTAGCACGTGGTCTT", "relative binding free energy": -0.24}
{"sequence": "AGTTTCACGTGGCTTG", "relative binding free energy": 0.28}
{"sequence": "TGTTGCACGTGGAGAG", "relative binding free energy": 0.16}
{"sequence": "TTAGACACGTGGATAT", "relative binding free energy": 0.02}
{"sequence": "AGAATCACGTGGGATG", "relative binding free energy": 0.11}
{"sequence": "AAAGGCACGTGGTGTT", "relative binding free energy": -0.18}
{"sequence": "GTGATCACGTGGATTA", "relative binding free energy": 0.2}
{"sequence": "CGCGCCACGTGTAGGG", "relative binding free energy": -0.08}
{"sequence": "GTAGCCACGTGGGGAG", "relative binding free energy": -0.22}
{"sequence": "GAGCTCACGTGTATGG", "relative binding free energy": 0.22}
{"sequence": "TATTTCACGTGGGGCG", "relative binding free energy": 0.17}
{"sequence": "TTTATCACGTGGTGTC", "relative binding free energy": 0.15}
{"sequence": "GCGAGCACGTGATGGT", "relative binding free energy": 0.02}
